For 110 compounds, z-score results are on record in PubChem BioAssay AID488969 (Vanderbilt High Throughput Screening Facility, 2010).

Whole data set: some 110,000 compounds, median “z-score” near -0.1, cut for the highest 2% near 2. The list shows a part of the results. Activity calls are given as the source filed them.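 How the source made its calls: active means z-score in the third read window above 3 or below -3; inactive means the rest.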

The target of the test is Metabotropic glutamate receptor 8 (Rattus norvegicus) (UniProt P70579). The test can be described thus: mGluR8 Gi/Go-coupled signaling modulation – cell-based, rat, thallium flux, HTS, primary screen (AID 488969). Conditions: HEK293 rat mGluR8, GIRK (G protein-gated inwardly rectifying potassium channel) thallium flux, FluoZin2; at 10 µM; stronger effect = higher value; submaximal glutamate (EC20) added with thallium.
UniProt P70579, sequence (P70579 whole entry, looked up): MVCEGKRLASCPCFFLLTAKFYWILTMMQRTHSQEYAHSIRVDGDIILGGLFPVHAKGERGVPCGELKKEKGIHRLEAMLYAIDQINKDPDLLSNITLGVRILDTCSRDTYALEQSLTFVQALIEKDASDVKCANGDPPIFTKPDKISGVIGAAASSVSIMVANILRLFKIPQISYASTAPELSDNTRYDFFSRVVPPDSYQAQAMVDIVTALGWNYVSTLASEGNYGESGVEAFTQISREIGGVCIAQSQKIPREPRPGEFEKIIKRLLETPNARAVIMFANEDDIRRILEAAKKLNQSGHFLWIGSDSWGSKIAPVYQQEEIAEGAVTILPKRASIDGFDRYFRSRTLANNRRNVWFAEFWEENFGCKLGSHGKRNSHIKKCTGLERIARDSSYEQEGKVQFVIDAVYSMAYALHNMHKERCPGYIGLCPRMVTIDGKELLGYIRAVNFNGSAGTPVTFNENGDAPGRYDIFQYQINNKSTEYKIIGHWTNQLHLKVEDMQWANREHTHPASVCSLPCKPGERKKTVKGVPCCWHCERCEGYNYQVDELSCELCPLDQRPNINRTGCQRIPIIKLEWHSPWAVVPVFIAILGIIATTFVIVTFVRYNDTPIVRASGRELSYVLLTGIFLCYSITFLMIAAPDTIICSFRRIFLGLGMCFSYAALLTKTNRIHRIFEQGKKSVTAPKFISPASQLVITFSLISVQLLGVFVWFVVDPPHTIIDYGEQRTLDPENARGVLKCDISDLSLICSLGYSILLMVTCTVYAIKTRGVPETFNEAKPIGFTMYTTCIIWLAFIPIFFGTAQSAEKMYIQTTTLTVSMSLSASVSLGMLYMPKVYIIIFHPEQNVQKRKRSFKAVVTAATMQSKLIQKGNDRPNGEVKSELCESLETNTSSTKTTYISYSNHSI
Regarding `COC(=O)C1=C(CN2CCN(C)CC2)NC(=O)NC1c1cc(C)ccc1C` (stereo not given), the z-score was determined as 0.795.

For `O=C(c1ccccc1)c1ccc(OCCCN2CCCCC2)cc1`, the z-score came out at 1.54.

The compound `CCCCC1CCC(C(=O)Nc2ccc(S(=O)(=O)Nc3nccs3)cc2)CC1` (stereo not given) displayed a z-score of -0.647.

Take `O=C1Nc2ccc(F)cc2C12SCCS2`: the z-score is -0.13.

For the compound `C=CCc1cccc2cc(C(=O)O)c(=O)oc12`, the z-score is -0.279.

Regarding `Cc1cccc(Nc2nc(N3CCCCC3)nc(N3CCCCC3)n2)c1`, the z-score was -0.356.

The compound `COc1ccc(Br)cc1CNC(=O)C1CCN(S(=O)(=O)N2CCCCC2)CC1` showed a z-score of -0.52.

Compound `O=C(Nc1ccc(Cl)cc1)OCCn1nnnc1C(c1ccccc1Cl)N1CCOCC1` (stereo not given) displayed a z-score of 0.209.

Regarding `COc1cc(C2NC(=O)NC(C)=C2C(=O)Nc2cccc(C)c2C)cc(OC)c1OC` (stereo not given), the z-score is 0.0404.

The compound `Cc1cccc(N2CCN(C(=O)CCCSc3nc4ccccc4[nH]3)CC2)c1C` displayed a z-score of -0.505.

Turning to `C/C(=N/NC(=O)c1cc(-c2cccc([N+](=O)[O-])c2)n[nH]1)c1ccc(Cl)cc1`, the z-score was found to be 0.0704.

Consider `Oc1ccc2ccccc2c1/C=N/Nc1ccccc1`, for which the z-score is -0.0331.

`CCc1cccc(OCCCN2C(=O)NC(C)(C)C2=O)c1` displayed a z-score of 0.00102.

On to `O=C(COC(=O)c1cnccn1)c1ccc2ccccc2c1`, for which the z-score is 0.118.

Consider `O=C(Cn1c(=O)c2c(ncn2Cc2ccccc2)n(Cc2ccccc2)c1=O)N1CCCC1`, for which the z-score was -0.391.

`O=C(N1CCOCC1)C(F)(F)C(=O)N1CCOCC1` had a z-score of -1.14.

`CC1(C)C(=O)Nc2ccccc2N1C(=O)COc1ncnc2c(Cl)cc(Cl)cc12` registered a z-score of -0.821.

`CCOC(=O)C1CCN(C(=O)C2CCCCC2)CC1` displayed a z-score of 0.44.

In turn, `C=CCn1c(Cc2ccc(OC(C)C)c(Cl)c2)nnc1SCC(N)=O` displayed a z-score of -0.113.

On to `CC(=O)Nc1cccc(C(=O)N/N=C/c2ccccc2F)c1`, for which the z-score is -0.261.

With `COc1ccnc(Nc2ccc(C)c(C)c2)c1C#N`, the z-score is -0.198.

In turn, `COc1ccc(CC(=O)Nc2cc(S(=O)(=O)N3CCCCC3)ccc2N2CCN(C)CC2)cc1` returned a z-score of 0.455.

Take `CCOC(=O)/C(C(N)=NC)=C(\O)c1ccccc1`: the z-score was -0.332.

For the compound `CCNC(=S)NNC(=O)c1c(Cl)c(C)nn1C`, the z-score is -0.0875.

For the compound `CN1CCN(C(=S)c2ccc(Cl)cc2)CC1`, the z-score is -0.452.

As for `Cc1cccc(NC(=O)[C@H](Cc2ccccc2)NC(=O)OCc2ccccc2)c1`, the z-score is -0.199.

In the case of `CCCOc1c(Cl)cc(C(=O)Nc2ccc3c(c2)OCO3)cc1OCC`, the z-score was -0.217.

Consider `COc1ccc(OC)c(-c2cc(C(=O)NCCCn3ccnc3)no2)c1`, for which the z-score is -0.513.

Compound `O=C(CSc1nc2ncccc2[nH]1)c1cccc([N+](=O)[O-])c1` had a z-score of -0.325.

Consider `CCn1c(SCC(=O)Nc2cccc(F)c2)nc2c(c1=O)SC(C)C2` (stereo not given), for which the z-score is -0.986.

`CC(=O)NS(=O)(=O)c1cccnc1Nc1ccc(Cl)cc1` gave a z-score of -0.763.

`CC(C)CNS(=O)(=O)c1ccc(OCC(=O)Nc2ccc(F)cc2F)cc1` registered a z-score of 0.378.

On to `CCOC(=O)c1cnn2c1[nH]c(=O)c1ccccc12`, for which the z-score turned out to be 1.54.

With `C=CCc1ccc(OCC(O)CN2CCC(Cc3ccccc3)CC2)c(OC)c1` (stereo not given), the z-score was -0.0438.

`CN(CC(O)COCc1ccc2c(c1)OCO2)C1CCCCC1` (stereo not given) displayed a z-score of 0.00786.

`CCOC(=O)/C=c1\s/c(=C\c2ccc(C(F)(F)F)cc2)c(=O)n1CC(=O)NCc1ccco1` gave a z-score of 0.125.

With `Cc1ccc(N(CC(=O)NCCc2ccc(F)cc2)S(=O)(=O)c2ccc(Cl)c([N+](=O)[O-])c2)c(C)c1`, the z-score was -0.23.

In the case of `O=C(Nc1ccc2c(c1)nc1n2CCOC1)c1ccccc1`, the z-score is 0.045.

`O=C(c1ccc(COc2ccccc2Br)o1)N1CCCCCC1` showed a z-score of -0.531.

For `COc1ccc(CN2CNc3nc4ccccc4n3C2)cc1`, the z-score was 0.000858.

Regarding `CC(=O)c1cccc(NS(=O)(=O)c2c(C)n[nH]c2C)c1`, the z-score was -0.26.

The compound `CCC(C)(C)n1nnnc1C(c1cccnc1)N1CCN(c2cccc(C(F)(F)F)c2)CC1` (stereo not given) registered a z-score of 0.82.

For the compound `COc1cccc(-n2nnc3c(=O)n(CC(=O)NC4CCCC4)cnc32)c1`, the z-score was -0.263.

In turn, `Nc1nc2n(n1)C(c1ccco1)CC(c1ccc(F)cc1)N2` (stereo not given) had a z-score of 0.268.

Turning to `CCCc1nn(C)c(C(=O)Nc2ccccc2)c1Cl`, the z-score was -0.39.

Compound `CCCNC(=O)N1CCN(c2ncccn2)CC1` registered a z-score of 0.455.

Compound `COCn1c(=O)c2c(nc(SC3=NCCS3)n2Cc2ccccc2C)n(COC)c1=O` showed a z-score of -0.493.

As for `COc1ccccc1NC(=O)c1nnn(Cc2ccccc2)c1NC(=O)C(F)(F)F`, the z-score came to 0.00332.

`CCOC(=O)CC(NC(=O)c1ccco1)c1ccc(C)cc1` (stereo not given): the z-score amounted to 0.281.

For `O=C(COC(=O)c1cccs1)Nc1cccc(S(=O)(=O)N2CCOCC2)c1`, the z-score is -0.23.

As for `Cn1c(=O)n(C)c2cc(NS(=O)(=O)c3ccc4c(c3)CCCC4)ccc21`, the z-score is -0.126.

The compound `COCCCn1c(SCC(=O)Nc2ccc3c(c2)OCCO3)nnc1-c1ccoc1C` yielded a z-score of -0.366.

The compound `COCCNC(=O)C(c1ccccc1)N(CCOC)C(=O)Cn1nnc2ccccc21` (stereo not given) gave a z-score of -0.461.

`CCOC(=O)c1ccc(NC(=O)CN2CCN(c3ccccc3)CC2)cc1`: the z-score is -0.154.

`CCC1CCCCN1C(=O)Nc1ccc(F)cc1` (stereo not given): the z-score came to 0.507.

Consider `COC(=O)c1ccc(CSc2nc3c(cnn3-c3ccccc3)c(=O)[nH]2)o1`, for which the z-score is -0.686.

The compound `C=CCn1c(=O)c2c(nc(Br)n2Cc2ccccc2Cl)n(C)c1=O` came in with a z-score of -0.766.

In turn, `COC(=O)/C(=N/Nc1ccccc1)N1CCCc2ccccc21` came in with a z-score of -0.429.

Turning to `O=C(Cc1cccs1)Nc1nnc(Cc2ccc(F)cc2)s1`, the z-score was 0.0854.

In turn, `O=C(NCc1ccc(Cl)cc1)c1ccccc1Oc1ccccc1` gave a z-score of -0.72.

In the case of `Cc1ccnc(NC(=S)NC(=O)/C=C/c2ccco2)c1`, the z-score was active: 3.2.

`Cc1[nH]n(-c2ccccc2)c(=O)c1S(=O)(=O)c1ccccc1` came in with a z-score of -0.642.

With `CC(=O)NC1=NC(=O)/C(=C/N2CCCCC2)S1`, the z-score was 0.174.

`COc1ccc(NC(=O)CN2C(=O)CC(C)(C)S(=O)(=O)c3ccccc32)cc1` came in with a z-score of 0.877.

`Cc1ccc(OC(=O)C2c3ccccc3Oc3ccccc32)cc1C` displayed a z-score of -0.276.

Compound `COc1cccc2cc(C(=O)N3CCCCC3C)c(=O)oc12` (stereo not given) showed a z-score of -0.11.

In the case of `CC(C)NC(=O)c1cc2c(C(F)(F)F)nn(C)c2s1`, the z-score amounted to 0.193.

`COc1ccc(C2CC(c3ccc(Cl)cc3)=NN2C(=O)c2cccc([N+](=O)[O-])c2)cc1` (stereo not given) displayed a z-score of -0.109.

The compound `Cc1ccc(/C=C/C(=O)Nc2nnc(C)s2)o1` displayed a z-score of -0.106.

`COc1cccc(NC(=S)NN2CCN(C)CC2)c1` returned a z-score of -0.264.

Consider `O=C(CSc1ccccc1)Nc1ccc(N2CCOCC2)cc1`, for which the z-score turned out to be 0.00596.

Turning to `Clc1ccc(Sc2cnc3ccccc3n2)cc1`, the z-score is 0.162.

In the case of `COC(=O)N/N=C/c1cccc(OCCSc2ccc(Cl)cc2)c1`, the z-score came out at 0.814.

Compound `CS(=O)(=O)N(Cc1ccc(Cl)cc1)c1ccc(C(=O)NCCSCc2ccco2)cc1` showed a z-score of -0.158.

The compound `COc1ccc(C2CC(c3cccs3)=NN2C(=O)CSc2nc3ccccc3s2)cc1` (stereo not given) yielded a z-score of 0.0016.

For the compound `CCOC(=O)c1c(C)[nH]c(C)c1C(=O)CSc1nnc(-c2cc(OC)c(OC)c(OC)c2)o1`, the z-score turned out to be 0.427.

For the compound `Cn1c(N)c(N2CCCCC2)c(=O)n(CC(=O)Nc2ccc(Cl)c(Cl)c2)c1=O`, the z-score was determined as 0.48.

In the case of `O=C(CSc1ncnc2nc[nH]c12)c1ccccc1`, the z-score came out at 0.198.

The compound `CCC(CC)NC(=O)COC(=O)c1ccc(OCc2ccc(C(C)=O)cc2OC)c(OC)c1` showed a z-score of -0.23.

The compound `O=S(=O)(Nc1nc(CN2CCOCC2)nc2sc3c(c12)CCCC3)c1cc(F)ccc1F` registered a z-score of -0.617.

`COc1ccc(C(CC(=O)O)NC(C)=O)cc1OC` (stereo not given) came in with a z-score of -0.0457.

`Cc1ccc(-c2cn3cccnc3n2)cc1NC(=O)c1ccc(Br)o1` displayed a z-score of -0.146.

In the case of `CCOC(=O)C(CCCCCOc1ccccc1[N+](=O)[O-])C(=O)OCC`, the z-score is 1.25.

For `O=C(NCCc1ccccc1)C(c1ccncc1)N(C(=O)c1csnn1)C1CC1` (stereo not given), the z-score is -0.113.

The compound `CCCn1nnc(NC(=O)c2sc3ccccc3c2Cl)n1` yielded a z-score of 0.0281.

Take `COC(=O)c1cc(NC(=O)Nc2cccc(Cl)c2)ccc1Cl`: the z-score was -0.309.

Consider `O=C(CSc1nnc(CNc2cccc(C(F)(F)F)c2)n1Cc1ccco1)NCc1ccco1`, for which the z-score stood at 1.19.

Turning to `O=C(NCCCCNC(=O)C1CCCC1)C1CCCC1`, the z-score was -0.493.

`C=CCNC(=O)NC(=O)COC(=O)CCCSc1nc2ccccc2[nH]1` came in with a z-score of -0.828.

`Cc1cccn2c(=O)c(/C=C(\C#N)C(=O)NCc3ccco3)c(N3CCCC(C)C3)nc12` (stereo not given) yielded a z-score of -0.634.

As for `COc1ccccc1NC(=O)CN1CCN(CC(=O)Nc2ccc(OCc3ccccc3)cc2)CC1`, the z-score is -0.223.

`COc1cccc(NC(=O)COc2ncnc3sc(C)c(C)c23)c1`: the z-score stood at 0.102.

`COc1ccc(-n2cnc3sc(-c4ccccc4)cc3c2=O)cc1`: the z-score amounted to 0.458.

In the case of `O=C(Nc1ccc(NC(=O)c2ccco2)nc1)c1cccnc1`, the z-score was -0.0311.

The compound `CCN(CC)C(=O)COc1cc(C)cc2oc(=O)cc(-c3ccccc3)c12` displayed a z-score of -0.189.

Compound `O=C(CC1C(=O)NCCN1C(=S)Nc1ccccc1)Nc1ccc(F)cc1` (stereo not given) showed a z-score of -0.305.

With `CC(C)c1nnc(NC(=O)c2sc3ccccc3c2Cl)s1`, the z-score is 0.175.

For `CCOc1cc2c(cc1OCC)C(C(=O)O)C(c1cc(Br)c(O)c(OC)c1)N(C)C2=O` (stereo not given), the z-score was -0.122.

`CC(CC1C(C#N)=C(N)OC2=C1C(=O)CCC2)c1ccccc1` (stereo not given) yielded a z-score of 0.816.

For `CN(C)c1ccc(NC(=O)c2sc(SCC(=O)Nc3ccc(Br)cc3)nc2N)cc1`, the z-score is -0.172.

As for `Cc1ccc(-c2noc(CN(C(=O)CCCN3C(=O)c4ccccc4C3=O)C(C)C)n2)cc1`, the z-score was -0.0776.

`O=C(Nc1nnc(-c2cccs2)o1)c1cccc(F)c1`: the z-score is active: 4.44.

In the case of `O=C(Nc1ccc(Cl)cc1Cl)c1ccc(-c2ccccc2)cc1`, the z-score was -0.131.

`O=C(Nc1ccc(-c2nc3ccc(NC(=O)c4cccs4)cc3[nH]2)cc1)c1cccs1` showed a z-score of -0.131.

In the case of `COc1ccc(OC)c(NC(=O)c2cc(S(=O)(=O)NCc3ccco3)ccc2F)c1`, the z-score is -0.0347.

Regarding `NS(=O)(=O)c1ccc(CCNc2ncnc3sccc23)cc1`, the z-score was -0.155.

Compound `Cc1ccc2n(n1)c(=O)c(Cc1ccccc1)c([O-])[n+]2-c1ccccc1` registered a z-score of -1.39.

Compound `COc1ccc(-n2c(=O)c3ccccc3n(CC(=O)NC3CCCCC3)c2=O)cc1` came in with a z-score of -0.362.

In turn, `Cn1c(=O)c2c(-c3ccccc3)n(CCCN3CCOCC3)cc2n(C)c1=O` showed a z-score of 0.0216.

Regarding `COC(=O)c1ccccc1NC(=O)c1cc(-c2ccc(C)cc2)on1`, the z-score was 0.0332.
